From the supplement of paper PMC12462457
Counter-ions that a name gives are not always drawn. ± gives the standard deviation of the averaged measurements. The list shows a part of the results.

System: OVCAR8
Assay: cell count relative to DMSO vehicle (fold change); OVCAR8 is a high-grade serous ovarian cancer line and CX-5461 an RNA polymerase I inhibitor; higher = more surviving senescent cells (less killing)
Conditions: senescence inducer: CX-5461 3 µM 48 h, then 6 d recovery (CX senescent), exposure time 24 h

SMILES	cell count (compound dose 1 µM)	cell count (compound dose 5 µM)
C/C=C(\C)C(=O)O[C@H]1C[C@@H](OC(C)=O)[C@@]2(C(=O)OC)CO[C@H]3[C@@H](O)[C@@](C)([C@]45O[C@@]4(C)[C@H]4C[C@@H]5O[C@@H]5OC=C[C@@]54O)[C@H]4[C@]1(CO[C@]4(O)C(=O)OC)[C@@H]32	1.12 ± 0.021	1.09 ± 0.18
Cc1cc2c(C(C)C)c(O)c(O)c(C=O)c2c(O)c1-c1c(C)cc2c(C(C)C)c(O)c(O)c(C=O)c2c1O	1.08 ± 0.056	1.06 ± 0.059
O=c1[nH]c2ccc(Cl)cc2c(N[C@@H]2CN3CCC2CC3)c1-c1nc2ccccc2[nH]1	0.709 ± 0.0014	0.517 ± 0.081
O=C1Nc2ccc3ncsc3c2/C1=C/c1cnc[nH]1	0.867 ± 0.15	0.894 ± 0.17
NCCCNCCSP(=O)(O)O	1.05 ± 0.18	1.01 ± 0.13
C=C(CO)C(=O)O[C@H]1CC(=C)[C@@H]2C[C@H](O)C(=C)[C@@H]2[C@H]2OC(=O)C(=C)[C@@H]21 [Cynaropicrin]	0.917 ± 0.0085	0.371 ± 0.04
COc1cc2c(cc1OC)-c1c(oc3c4c(ccc3c1=O)OC(C(C)C)C4)CO2 (centres undefined)	1.13 ± 0.013	1.28 ± 0.17
COc1c(C)c(O)cc2[o+]c(-c3ccccc3)ccc12.[O-][Cl+3]([O-])([O-])[O-] [Dracorhodin perchlorate]	1.22 ± 0.36	1.2 ± 0.32
CC(C)[C@]12O[C@H]1[C@@H]1O[C@@]13[C@@]1(C)CCC4=C(COC4=O)[C@@H]1C[C@@H]1O[C@@]13C2=O [Triptonide]	0.796 ± 0.011	0.745 ± 0.036
C[C@@]1(C(=O)O)CC[C@]2(C)CC[C@]3(C)C4=CC(=O)c5c(cc(O)c(O)c5C=O)[C@]4(C)CC[C@@]3(C)[C@@H]2C1 [Demethylzeylasteral]	0.788 ± 0.019	1.091 ± 0.0014
Cn1c(COP(=O)(NCCBr)NCCBr)cnc1[N+](=O)[O-] [Evofosfamide]	1.17 ± 0.18	1.16 ± 0.1
Cc1ncc(C[n+]2csc(CCO)c2C)c(=O)[nH]1 [Oxythiamine]	1.17 ± 0.28	1.17 ± 0.24
C[C@@H]1CC[C@]2(NC1)O[C@H]1C[C@H]3[C@@H]4CC=C5C[C@@H](O)CC[C@]5(C)[C@H]4CC[C@]3(C)[C@H]1[C@@H]2C	1.06 ± 0.16	1.1 ± 0.17
O=C1C2CCN(CC2)C1(CO)CO	0.97 ± 0.033	0.871 ± 0.12
C[C@H]1CC[C@]2(NC1)O[C@H]1C[C@H]3[C@@H]4CC[C@H]5C[C@@H](O[C@@H]6O[C@H](CO)[C@H](O[C@@H]7O[C@H](CO)[C@@H](O)[C@H](O[C@@H]8OC[C@@H](O)[C@H](O)[C@H]8O)[C@H]7O[C@@H]7O[C@H](CO)[C@@H](O)[C@H](O)[C@H]7O)[C@H](O)[C@H]6O)CC[C@]5(C)[C@H]4CC[C@]3(C)[C@H]1[C@@H]2C [Tomatine]	0.166 ± 0.059	0.0245 ± 0.005
N#Cc1cn([C@@H]2O[C@H](CO)[C@@H](O)[C@H]2O)c2ncnc(N)c12 [Toyocamycin]	1 ± 0.057	1.02
O=C1c2ccccc2C(=O)c2c1cccc2-c1cnn(C2CCNCC2)c1 [PDK4-IN-1 (hydrochloride)]	0.981 ± 0.098	0.941 ± 0.025
C[C@]12CC[C@H](O)C[C@@]1(O)CC[C@@H]1[C@@H]2CC[C@]2(C)[C@@H](c3ccc(=O)oc3)[C@@H](O)[C@H]3O[C@]132 [Desacetylcinobufotalin]	1.22 ± 0.04	0.795 ± 0.16
O=C1CCC[C@@H]2[C@H]3CCCN4CCC[C@H](CN12)[C@@H]34 [Sophoridine]	1.19 ± 0.17	1.11 ± 0.33
COc1ccc2c(c[n+](C)c3c4cc5c(cc4ccc23)OCO5)c1OC [Chelerythrine (chloride)]	1.18 ± 0.14	1.2 ± 0.2
CNc1ccc2oc(C[C@H]3O[C@@]4(CC[C@H]3C)O[C@H]([C@H](C)C(=O)c3ccc[nH]3)[C@H](C)C[C@H]4C)nc2c1C(=O)O [Calcimycin]	1.31 ± 0.04	1.28 ± 0.12
COc1ccc(O)c(C(C)(C)C)c1.COc1ccc(O)cc1C(C)(C)C	1.03 ± 0.12	1.1 ± 0.13
O=C1C=C2C(=CCOC2O)O1 (centres undefined)	0.709 ± 0.13	0.076 ± 0.018
C=C(C)[C@H]1Cc2c(ccc3c2O[C@@H]2COc4cc(OC)c(OC)cc4[C@@H]2C3=O)O1 [Rotenone]	1.18 ± 0.22	1.167 ± 0.0028
COc1ccc([C@@]23Oc4cc(OC)cc(OC)c4[C@]2(O)[C@H](O)[C@H](C(N)=O)[C@H]3c2ccccc2)cc1 [Didesmethylrocaglamide]	0.534 ± 0.033	0.472 ± 0.016
COc1ccc2c(c1)/C(=C/c1cnc[nH]1)C(=O)N2	1.26 ± 0.29	1.13 ± 0.4

SMILES	cell count (compound dose 1 µM)	cell count (compound dose 5 µM)
COc1ccc(C[C@H]2NC[C@H](O)[C@H]2OC(C)=O)cc1 [Anisomycin]	0.936 ± 0.11	0.558 ± 0.13
C[C@@H]1CC[C@H]2[C@@H](C)C(=O)O[C@@H]3O[C@@]4(C)CC[C@@H]1[C@]32OO4 [Artemisinin]	1.02 ± 0.015	1.18 ± 0.11
Cc1ccc(OCCn2c(C)c(C=C3C(=O)NC(=S)NC3=O)c3ccccc32)c(C)c1	1.13 ± 0.15	0.905 ± 0.061
CC(=O)N1N=C(c2ccc(N)cc2)c2cc3c(cc2C[C@H]1C)OCO3 [Talampanel]	1.21 ± 0.33	1.16 ± 0.28
O=C1CCC[C@@H]2[C@H]3CCCN4CCC[C@@H](CN12)[C@@H]34 [Matrine]	1.08 ± 0.14	1.06 ± 0.16
CC(=O)O[C@H]1[C@H]2O[C@]23[C@@H]2CC[C@@H]4C[C@@H](O)CC[C@]4(C)[C@H]2CC[C@]3(C)[C@H]1c1ccc(=O)oc1 [Cinobufagin]	0.034 ± 0.0014	0.0175 ± 0.0092
CN[C@@H]1C[C@H]2O[C@@](C)([C@@H]1OC)n1c3ccccc3c3c4c(c5c6ccccc6n2c5c31)C(=O)NC4 [Staurosporine]	0.0115 ± 0.0092	0.0045 ± 0.00071
COCC1(CO)C(=O)C2CCN1CC2 (centres undefined) [Eprenetapopt]	1.09 ± 0.11	0.884 ± 0.059
C=C[C@H]1CN2CC[C@H]1C[C@@H]2[C@@H](O)c1ccnc2ccccc12 [Cinchonine]	1.08 ± 0.27	1.1 ± 0.28
C/C(=C\c1csc(C)n1)[C@@H]1C[C@@H]2O[C@]2(C)CCC[C@H](C)[C@H](O)[C@@H](C)C(=O)C(C)(C)[C@@H](O)CC(=O)O1 [Epothilone B]	1.07 ± 0.018	1 ± 0.15
COc1ccccc1-n1c(/C=C/c2ccc(O)c(O)c2)nc2ccccc2c1=O	1.15 ± 0.21	1.13 ± 0.042
C=C1[C@H](OC(=O)c2ccccc2)C[C@H]2[C@@H](/C=C(\C)C(=O)[C@@]3(OC(C)=O)C[C@H](C)[C@H](OC(=O)c4ccccc4)[C@@H]3[C@H]1OC(C)=O)C2(C)C [Euphorbia Factor L2]	1.16 ± 0.22	1.07 ± 0.15
CC(=O)OC(C)(C)/C=C/C(=O)[C@](C)(O)[C@H]1[C@H](O)C[C@@]2(C)[C@@H]3CC=C4[C@H](C[C@H](O)C(=O)C4(C)C)[C@]3(C)C(=O)C[C@]12C [Cucurbitacin B]	0.015 ± 0.0042	0.015 ± 0.0014
CC(C)[C@@H]1NC(=O)[C@H](C)OC(=O)[C@@H](C(C)C)NC(=O)[C@@H](C(C)C)OC(=O)[C@H](C(C)C)NC(=O)[C@H](C)OC(=O)[C@@H](C(C)C)NC(=O)[C@@H](C(C)C)OC(=O)[C@H](C(C)C)NC(=O)[C@H](C)OC(=O)[C@@H](C(C)C)NC(=O)[C@@H](C(C)C)OC1=O [Valinomycin]	1.01 ± 0.027	1.06 ± 0.14
O=C(Nc1ccncc1)C(=O)c1cn(Cc2ccc(Cl)cc2)c2ccccc12 [Indibulin]	1.065 ± 0.0035	1.09 ± 0.018
O=c1ccc2ccc3occc3c2o1 [Angelicin]	1.07 ± 0.14	1.03 ± 0.1
C/C=C(/C)C(=O)O[C@H]1[C@@H]2[C@H](C)C(=O)O[C@@H]2C[C@@H](C)[C@@H]2C=CC(=O)[C@]21C [Brevilin A]	1.052 ± 0.0078	1.11 ± 0.066
N#Cc1nn(-c2c(Cl)cc(C(F)(F)F)cc2Cl)c(N)c1[S+]([O-])C(F)(F)F (centres undefined) [Fipronil]	1.04 ± 0.043	1.01 ± 0.12
CC[C@@]1(O)C(=O)OCc2c1cc1n(c2=O)Cc2cc3ccccc3nc2-1 [Camptothecin]	0.737 ± 0.057	1.01 ± 0.16
CC(C)=CCC[C@]1(C)C=Cc2c(O)c3c(c(CC=C(C)C)c2O1)O[C@]12C(=C[C@@H]4C[C@H]1C(C)(C)O[C@@]2(C/C=C(/C)C(=O)O)C4=O)C3=O [Gambogic Acid]	0.998 ± 0.14	0.008 ± 0.0014
COc1cc(-n2c(=S)[nH]c3ccccc3c2=O)c(Cl)cc1Cl [Mdivi-1]	0.91 ± 0.076	1.13 ± 0.03
CC1=C(O)C(=O)C=C2C1=CC=C1[C@@]2(C)CC[C@@]2(C)[C@@H]3C[C@](C)(C(=O)O)CC[C@]3(C)CC[C@]12C [Tripterin]	0.267 ± 0.017	0.0165 ± 0.005
O=Cc1cn(Cc2ccc(Cl)cc2)c2ccccc12 [Oncrasin-1]	1.06 ± 0.22	0.978 ± 0.3
CC(C)=CCC[C@H](C(=O)O)[C@H]1CC[C@]2(C)C3=C(CC[C@@]12C)[C@@]1(C)CCC(=O)C(C)(C)[C@H]1CC3 [β-Elemonic acid]	1.08 ± 0.2	0.928 ± 0.09
COc1cc([C@@H]2c3cc4c(cc3[C@H](O)[C@H]3COC(=O)[C@@H]23)OCO4)cc(OC)c1OC [Picropodophyllin]	1.01 ± 0.044	1.116 ± 0.0042
C1=C2CCCN[C@H]2[C@@H]2C[C@H]1[C@H]1CCCCN1C2 [Aloperine]	1.11 ± 0.081	1.17 ± 0.13
